PubChem BioAssay AID463173 (ICCB-Longwood Screening Facility, Harvard Medical School, 2010)
Out of some 52,000 compounds screened, about 1,700 (3.3%) were called active. Rule as the data show it: active = survival mostly below about 52% (no sharp cut-off); inactive = mostly above about 56%. The list shows a part of the results.

What follows are molecules tested on Wild type (assay: growth inhibition of S. aureus wild type versus tarO mutant, primary screen, teichoic acid synthesis inhibitors, RN4220, OD600 (AID 463173)). Conditions: S. aureus RN4220 wild type/DeltatarO growth, OD600, 18 h, stronger effect = lower value, screened at 18.75 µg/mL (by protocol).

| Structure (SMILES) | survival |
| --- | --- |
| Cc1nn(C)c(C)c1S(=O)(=O)N(CC(=O)N1CCN(c2ccccc2)CC1)c1ccc(C(C)C)cc1 | inactive: 82% |
| CCOc1ccccc1NC(=O)C1CCN(S(=O)(=O)c2ccc3[nH]c4c(c3c2)CCCCC4)CC1 | inactive: 70% |
| Cc1ccc(C)c(NC(=O)Cn2c(=O)ccc3cc(S(=O)(=O)N4CCCC4)ccc32)c1 | inactive: 75% |
| O=C(NCc1cccs1)c1ccc(CSc2nc3cccnc3n2Cc2ccccc2)cc1 | inactive: 101% |
| O=C1C2=C(Nc3ccccc3SC2c2ccccc2C(F)(F)F)c2ccccc21 (stereo unspecified) | active: 11% |
| Cc1cc(C)n(-c2nnc(Nc3cc(Cl)ccc3C)c3ccccc23)n1 | inactive: 74% |
| COc1ccccc1NC(=O)c1cc2c([nH]c1=O)CC(C)(C)CC2=O | inactive: 61% |
| CCCCCNC(=O)c1ccc2c(c1)nc(C)n2-c1cccc(C)c1 | active: -2% |
| O=C(CCn1c(=O)c2cccn2c2ccccc21)Nc1ccc(F)cc1 | inactive: 67% |
| O=C(NCc1ccccc1Cl)C1COc2ccccc2O1 (stereo unspecified) | inactive: 118% |
| Cc1ccccc1NC(=O)c1ccc(F)c(S(=O)(=O)N(C)C2CCCCC2)c1 | inactive: 117% |
| COc1ccc(NC(=O)c2sc3nc4c(cc3c2N)CCCCCC4)cc1OC | inactive: 83% |
| Cc1nc(-c2ccc(C)c(S(=O)(=O)N3CCC(C(=O)Nc4ccc(Cl)cc4)CC3)c2)no1 | inactive: 121% |
| O=C(Nc1ccccc1N1CCN(c2ccccc2)CC1)c1ccccc1 | inactive: 110% |
| CCC1CCCCN1CCCNC(=O)c1cc2c(=O)n(CC)c3ccccc3c2s1 (stereo unspecified) | inactive: 87% |
| COc1ccc(NC(=O)C2CCCN(S(=O)(=O)c3cccs3)C2)cc1 (stereo unspecified) | inactive: 88% |
| CC1Cc2cc(S(=O)(=O)N(C)c3ccc(Br)cc3)ccc2N1C(=O)C1CC1 (stereo unspecified) | inactive: 106% |
| Fc1ccc(Cc2cn3cc(-c4ccc(Cl)cc4)nc3s2)cc1 | inactive: 85% |
| N#C/C(=C/c1ccc(Cl)cc1Cl)c1nc2ccccc2c(=O)[nH]1 | inactive: 75% |
| O=c1[nH]c(O)c(C=NCCCn2ccnc2)c(=O)[nH]1 | inactive: 106% |
| COc1ccc(CNC(=O)C2CCN(S(=O)(=O)c3ccc(C)cc3)CC2)cc1 | inactive: 78% |
| CCN1CCN(C(c2ccccc2)c2c(O)cc(C)n(Cc3ccco3)c2=O)CC1 (stereo unspecified) | inactive: 110% |
| O=C(NC1CCS(=O)(=O)C1)Sc1ccccc1 (stereo unspecified) | inactive: 115% |
| c1ccc(CCn2nnnc2C(c2cccnc2)N2CCCCC2)cc1 (stereo unspecified) | inactive: 114% |
| O=C(Nc1ccccc1F)c1ccc(-c2ccccc2)s1 | inactive: 84% |
| COC(=O)c1c(N)n(-c2ccc(OC)c(Cl)c2)c2nc3ccccc3nc12 | inactive: 74% |
